This is one part of the list. At the low end of the ranking, values are background and their order means little.
The sequences below were run against GST-SBP-SLBP (stem-loop binding protein) (UniProt Q14493) (assay: targeted RNA Bind-n-Seq). Conditions: RBNS binding buffer: 25 mM Tris pH 7.5, 150 mM KCl, 3 mM MgCl2, 0.1% Tween, 0.5 mg/mL BSA, 1 mM DTT; 27 nM protein, 750 pM RNA pool; temperature not stated; high values mean tight binding.
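Also: DESeq read counts versus GST-SBP nonspecific binding control pulldown.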

Sequence	binding signal (log2 fold change)
GGUCACGUCUCAAUCAACUCAUCCUCCAGGGAAAGCCCUGGCAAACUCAACAGCUCGCAGUCAAG	-0.259
GGUCACGUCUCAAUCAACUCUUCCUCAGGAGUUUACUCCUGCAUUCUCAACAGCUCGCAGUCAAG	0.0893
GGUCACGUCUCAAUCAACUCUUCGUCAGGAGUUUACUCCUGCAUAUUCAACAGCUCGCAGUCAAG	-0.0285
GGUCACGUCUCAAUCAACUCAGUCCCAGGAGUUUACUCCUGCUAAUUCAACAGCUCGCAGUCAAG	0.118
GGUCACGUCUCAAUCAACUCUUCGCCAGGAGUUUUCUCCUGUAUAUUCAACAGCUCGCAGUCAAG	-0.0303
GGUCACGUCUCAAUCAACUCUUCGUCCAGGGAAAUCCCUGGUUAUCUCAACAGCUCGCAGUCAAG	0.111
GGUCACGUCUCAAUCAACUCAAUAGAGGGGGGGAAAACCCCUUUGCCCUCAGAAUCAACAGCUCGCAGUCAAG	-0.00936
GGUCACGUCUCAAUCAACUCUUCGUCCAGGGAAAACCCUGGUUAAUUCAACAGCUCGCAGUCAAG	-0.0227
GGUCACGUCUCAAUCAACUCUUUCCCCAGGGAAAGCCCUGGCAAUGUCAACAGCUCGCAGUCAAG	-0.0371
GGUCACGUCUCAAUCAACUCAUCCCCAGGAGUUUCCUCCUGCAAACUCAACAGCUCGCAGUCAAG	0.0262
GGUCACGUCUCAAUCAACUCCUACGAGGGGGGGAAAACCCCUUUACCCUCUAUAUCAACAGCUCGCAGUCAAG	0.0141
GGUCACGUCUCAAUCAACUCAUCCUCAGGAGUUUACUCCUGUAAUCUCAACAGCUCGCAGUCAAG	0.0944
GGUCACGUCUCAAUCAACUCUCCCGAGGGGGGGAAAACCCCUUUACCCUCACAAUCAACAGCUCGCAGUCAAG	-0.565
GGUCACGUCUCAAUCAACUCAACUCCAGGAGUUUACUCCUGCUAUCUCAACAGCUCGCAGUCAAG	0.0483
GGUCACGUCUCAAUCAACUCUAAAGAGGGGGGGAAAACCCCUUUACCCUCAACUUCAACAGCUCGCAGUCAAG	-0.148
GGUCACGUCUCAAUCAACUCAGUUCCAGGAGUUUCCUCCUGCAUUUUCAACAGCUCGCAGUCAAG	-0.12
GGUCACGUCUCAAUCAACUCAGUCUCCAGGGAAAGCCCUGGUAUAUUCAACAGCUCGCAGUCAAG	0.113
GGUCACGUCUCAAUCAACUCUAUUCCAGGAGUUUCCUCCUGUAAACUCAACAGCUCGCAGUCAAG	0.0269
GGUCACGUCUCAAUCAACUCUUCCCCCAGGGAAAGCCCUGGCAUUUUCAACAGCUCGCAGUCAAG	-0.152

Sequence	binding signal (log2 fold change)
GGUCACGUCUCAAUCAACUCCUAAGAGGGGGGGAAAACCCCUUUGCCCUCAUCCUCAACAGCUCGCAGUCAAG	0.133
GGUCACGUCUCAAUCAACUCCCUAGAGGGGGGGAAAACCCCUUUGCCCUCCAACUCAACAGCUCGCAGUCAAG	0.245
GGUCACGUCUCAAUCAACUCUACUUCCAGGGAAACCCCUGGCAUUCUCAACAGCUCGCAGUCAAG	0.0161
GGUCACGUCUCAAUCAACUCUAUUCCAGGAGUUUUCUCCUGCAAACUCAACAGCUCGCAGUCAAG	0.0585
GGUCACGUCUCAAUCAACUCUUCCUCCAGGGAAACCCCUGGUAAAUUCAACAGCUCGCAGUCAAG	-0.188
GGUCACGUCUCAAUCAACUCUCCAGAGGGGGGGAAAACCCCUUUGCCCUCAUUAUCAACAGCUCGCAGUCAAG	-0.0589
GGUCACGUCUCAAUCAACUCUUCCUCAGGAGUUUCCUCCUGUAAUUUCAACAGCUCGCAGUCAAG	0.0967
GGUCACGUCUCAAUCAACUCUAUAGAGGGGGGGAAAACCCCUUUGCCCUCAUCCUCAACAGCUCGCAGUCAAG	-0.067
GGUCACGUCUCAAUCAACUCAUCUUCAGGAGUUUACUCCUGCAAUUUCAACAGCUCGCAGUCAAG	-0.00995
GGUCACGUCUCAAUCAACUCUUUCCCCAGGGAAAACCCUGGCAUAUUCAACAGCUCGCAGUCAAG	0.115
GGUCACGUCUCAAUCAACUCCAUAGAGGGGGGGAAAACCCCUUUACCCUCACUAUCAACAGCUCGCAGUCAAG	-0.000467
GGUCACGUCUCAAUCAACUCUACUCCAGGAGUUUUCUCCUGCAAUGUCAACAGCUCGCAGUCAAG	0.12
GGUCACGUCUCAAUCAACUCAUACGAGGGGGGGAAAACCCCUUUACCCUCAAAAUCAACAGCUCGCAGUCAAG	-0.456
GGUCACGUCUCAAUCAACUCUUCUUCAGGAGUUUACUCCUGUUAACUCAACAGCUCGCAGUCAAG	0.0697
GGUCACGUCUCAAUCAACUCAUCCUCCAGGGAAAGCCCUGGCAAUUUCAACAGCUCGCAGUCAAG	0.0238
GGUCACGUCUCAAUCAACUCUUCUCCCAGGGAAAGCCCUGGUUUUUUCAACAGCUCGCAGUCAAG	-0.0101
GGUCACGUCUCAAUCAACUCAUUUCCCAGGGAAAGCCCUGGUAAUUUCAACAGCUCGCAGUCAAG	0.14
GGUCACGUCUCAAUCAACUCAUCGUCAGGAGUUUGCUCCUGUAAUCUCAACAGCUCGCAGUCAAG	0.196

— publication PMC5892938
